# This is one part of the list. Single values of this set are uncertain. Values with irradiation are relative to irradiated vehicle.
# System: A549-Dual
# Experiment: ISRE reporter (Lucia luciferase) activity, viability-corrected, relative to vehicle (fold change vs vehicle); higher = more activation of STING-IRF / NF-kB immune response reporter
# Settings: 10 µM; irradiation: none
row,SMILES,ISRE reporter
1,NS(=O)(=O)c1cc2c(cc1Cl)N=CNS2(=O)=O [Chlorothiazide],0.732
2,CS(=O)(=O)O.CS(=O)(=O)O.N=C(N)Nc1ccc(C(=O)Oc2ccc3cc(C(=N)N)ccc3c2)cc1 [Nafamostat Mesylate],1.14
3,O=C1C(N(CO)C(=O)NCO)N(CO)C(=O)N1CO (stereo not drawn) [Diazolidinyl urea],0.733
